Laboratory results as given in PMC5108317.
No constants are given. Whether binding was seen depends on the method and setting. Binding seen in cells or lysates may run through a third protein. Some results given as binding are weak or reduced against the parent protein; the word gives no strength. Where a sequence is shown, tags or fusion partners need not be part of it.

Protein sequences, listed by entry. Tags and fused reporters are not part of them. Lines headed by an entry give the natural chain unless they say otherwise; changes in a name come on top. Residues count along the entry.
UniProt Q676U5: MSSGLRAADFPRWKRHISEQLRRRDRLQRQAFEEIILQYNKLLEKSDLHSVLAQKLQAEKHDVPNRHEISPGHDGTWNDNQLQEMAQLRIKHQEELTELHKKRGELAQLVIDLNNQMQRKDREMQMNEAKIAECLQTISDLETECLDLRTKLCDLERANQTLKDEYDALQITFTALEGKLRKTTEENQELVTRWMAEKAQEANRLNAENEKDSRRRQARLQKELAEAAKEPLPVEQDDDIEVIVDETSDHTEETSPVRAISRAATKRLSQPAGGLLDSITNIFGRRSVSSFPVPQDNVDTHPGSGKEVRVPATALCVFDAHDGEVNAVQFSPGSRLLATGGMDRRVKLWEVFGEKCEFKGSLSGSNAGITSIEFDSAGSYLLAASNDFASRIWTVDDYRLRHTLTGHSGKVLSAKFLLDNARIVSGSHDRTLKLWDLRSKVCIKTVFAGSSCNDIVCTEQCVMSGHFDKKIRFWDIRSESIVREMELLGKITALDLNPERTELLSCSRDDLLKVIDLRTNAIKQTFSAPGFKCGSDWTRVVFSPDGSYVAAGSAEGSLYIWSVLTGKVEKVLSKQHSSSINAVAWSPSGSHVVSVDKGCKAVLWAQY
FLAG-ATG16L1_(1)_(–300): residues 1-300 of Q676U5
UniProt O94817: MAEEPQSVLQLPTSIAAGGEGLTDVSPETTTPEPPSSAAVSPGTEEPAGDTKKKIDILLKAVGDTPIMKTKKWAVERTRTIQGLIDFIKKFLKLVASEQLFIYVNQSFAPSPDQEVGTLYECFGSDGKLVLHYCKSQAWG
UniProt Q6ZNE5: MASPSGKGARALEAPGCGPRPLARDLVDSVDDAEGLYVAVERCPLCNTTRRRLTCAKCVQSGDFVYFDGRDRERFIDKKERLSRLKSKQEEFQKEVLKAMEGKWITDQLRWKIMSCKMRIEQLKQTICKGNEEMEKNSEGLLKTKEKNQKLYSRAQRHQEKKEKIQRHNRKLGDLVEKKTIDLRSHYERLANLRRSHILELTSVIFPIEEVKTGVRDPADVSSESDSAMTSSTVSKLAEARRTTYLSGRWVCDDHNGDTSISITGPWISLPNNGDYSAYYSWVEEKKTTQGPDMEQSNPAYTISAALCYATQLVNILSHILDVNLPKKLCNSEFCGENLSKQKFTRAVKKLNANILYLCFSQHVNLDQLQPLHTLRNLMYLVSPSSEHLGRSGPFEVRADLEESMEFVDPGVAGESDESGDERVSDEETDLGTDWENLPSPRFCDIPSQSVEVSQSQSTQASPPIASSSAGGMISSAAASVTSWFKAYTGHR

T1: GST-EVA1A1–30 (human) (UniProt Q9H8M9)
T1 sequence: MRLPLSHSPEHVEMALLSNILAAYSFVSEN

T2: GST-EVA1A60–152 (human) (UniProt Q9H8M9)
T2 sequence: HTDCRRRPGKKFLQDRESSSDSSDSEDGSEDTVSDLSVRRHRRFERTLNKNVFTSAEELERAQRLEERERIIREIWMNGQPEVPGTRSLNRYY

T3: FLAG-EVA1A60–152 (human) (UniProt Q9H8M9)
T3 sequence: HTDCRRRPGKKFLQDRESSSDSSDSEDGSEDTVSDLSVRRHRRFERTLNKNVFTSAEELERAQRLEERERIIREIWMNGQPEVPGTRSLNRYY

T4: full-length FLAG-EVA1A (human) (UniProt Q9H8M9)
T4 sequence: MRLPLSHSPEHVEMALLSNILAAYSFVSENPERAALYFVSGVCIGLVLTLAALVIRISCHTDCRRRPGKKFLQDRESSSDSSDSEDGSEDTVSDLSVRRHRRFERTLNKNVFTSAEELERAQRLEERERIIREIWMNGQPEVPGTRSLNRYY


Experiments:
GST-EVA1A1–30 (human) = target: T1, GST-EVA1A1–30 (human); assay: pull-down; GST or GST-EVA1A fusion proteins on glutathione-Sepharose 4B beads, mixed with whole-cell lysates of plasmid-transfected (HeLa) cells for 4 h at 4 °C, five washes, western blot; only the target purified
GST-EVA1A60–152 (human) = target: T2, GST-EVA1A60–152 (human); assay: as above
FLAG-EVA1A60–152 (human) = target: T3, FLAG-EVA1A60–152 (human); assay: co-IP; HeLa cells co-transfected for 24 h; total cell extracts in RIPA lysis buffer (1 mg per sample), IP with anti-FLAG or control mIgG and protein G sepharose, 4 h at 4 °C, five washes; GFP and FLAG detected by western blot
[1] = target: T4, full-length FLAG-EVA1A (human); assay: as above
FLAG-ATG16L1_(1)_(–300) = FLAG-ATG16L1_(1)_(–300) (UniProt Q676U5); assay: as above

Row | Molecule | binding (GST-EVA1A60–152 (human)) | further results
1 | GFP–ATG16L1 (from UniProt Q676U5 1-607) | binds | binding (GST-EVA1A1–30 (human)): no binding; binding (FLAG-EVA1A60–152 (human)): binds; binding [1]: binds
2 | ATG12–ATG5 conjugates (from UniProt O94817 1-140; Q9H1Y0 1-275) (complex) | binds weakly | –
3 | GFP-ATG14 (from UniProt Q6ZNE5 1-492) | no binding | –
4 | GFP-ZFYVE1/DFCP1 (protein, UniProt Q9HBF4 1-777) MSAQTSPAEKGLNPGLMCQESYACSGTDEAIFECDECCSLQCLRCEEELHRQERLRNHERIRLKPGHVPYCDLCKGLSGHLPGVRQRAIVRCQTCKINLCLECQKRTHSGGNKRRHPVTVYNVSNLQESLEAEEMDEETKRKKMTEKVVSFLLVDENEEIQVTNEEDFIRKLDCKPDQHLKVVSIFGNTGDGKSHTLNHTFFYGREVFKTSPTQESCTVGVWAAYDPVHKVAVIDTEGLLGATVNLSQRTRLLLKVLAISDLVIYRTHADRLHNDLFKFLGDASEAYLKHFTKELKATTARCGLDVPLSTLGPAVIIFHETVHTQLLGSDHPSEVPEKLIQDRFRKLGRFPEAFSSIHYKGTRTYNPPTDFSGLRRALEQLLENNTTRSPRHPGVIFKALKALSDRFSGEIPDDQMAHSSFFPDEYFTCSSLCLSCGVGCKKSMNHGKEGVPHEAKSRCRYSHQYDNRVYTCKACYERGEEVSVVPKTSASTDSPWMGLAKYAWSGYVIECPNCGVVYRSRQYWFGNQDPVDTVVRTEIVHVWPGTDGFLKDNNNAAQRLLDGMNFMAQSVSELSLGPTKAVTSWLTDQIAPAYWRPNSQILSCNKCATSFKDNDTKHHCRACGEGFCDSCSSKTRPVPERGWGPAPVRVCDNCYEARNVQLAVTEAQVDDEGGTLIARKVGEAVQNTLGAVVTAIDIPLGLVKDAARPAYWVPDHEILHCHNCRKEFSIKLSKHHCRACGQGFCDECSHDRRAVPSRGWDHPVRVCFNCNKKPGDL | no binding | –
5 | GFP-EVA1A (protein, UniProt Q9H8M9 1-152) MRLPLSHSPEHVEMALLSNILAAYSFVSENPERAALYFVSGVCIGLVLTLAALVIRISCHTDCRRRPGKKFLQDRESSSDSSDSEDGSEDTVSDLSVRRHRRFERTLNKNVFTSAEELERAQRLEERERIIREIWMNGQPEVPGTRSLNRYY | – | binding (FLAG-ATG16L1_(1)_(–300)): no binding
